# Test results as given in the supplement of paper PMC11417369.
# ± gives the standard deviation of the averaged measurements. The list shows a part of the results.
# Tested on: PfAP2-G AP2 domain (GST-tagged)
# Test: gcPBM binding intensity (ln(normalized median fluorescence intensity)); higher = stronger DNA binding
# Procedure, shortened: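 DNA-binding domains from P. falciparum, fused to GST and produced in E. coli, were put on an Agilent 4 × 180k double-stranded probe array for 1 h in 1× PBS holding 1% milk, 0.2 mg/ml BSA, 0.5% salmon testes DNA and 0.03% Triton X-100. Probes were primer-extended, 36 bp long and drawn from intergenic genomic regions, with negative controls included. After Alexa488 anti-GST antibody detection and a 488 nm scan, binding intensity was set as the highest Masliner-normalised natural-log median intensity across replicate spots of either probe orientation.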
row,Sequence,gcPBM binding intensity (ln)
1,AAAATAAATTGTGAAGGTACACAAATTATTATGTGG [XGTACX_site4196],11.1 ± 0.64
2,TATATTTTAAAATTATGTACATATATAGATAAATGT [XGTACX_site1349],11.3 ± 0.52
3,ATATAAATATAGTGTGCACACACATAATATATATAT [CACACA_site8713],10.4 ± 0.25
4,TATCATCATGTATGTACACACATACAGATATTATGT [CACACA_site4888],11.3 ± 0.69
5,AAATACAAAATTGTTACACACATATTAATTATGACA [CACACA_site476],10 ± 0.13
6,TATTTAAATGGATGCACACATGCATTAAATAAAATA [CACACA_site3433],10.1 ± 0.18
7,TGTAATGTTTACAACACACAAATTATAAATACAAAA [CACACA_site5047],9.985 ± 0.007
8,AATCATATTTAGATTACACACAGTTTAAATATTTTA [CACACA_site1263],9.71 ± 0.18
9,TATATATATATATATATATATATATATATAATATTA [XGTACX_negctrl_site558],9.93 ± 0.79
10,TTATGCAGATAAAAGAGTACATATTCGTTACATACA [XGTACX_site2849],11.3 ± 0.86
11,TCGATATATAGACACACACACTTTTAATAATTAAAT [CACACA_site7726],10.2 ± 0.24
12,TACAAACAGACATATACACACAAAAAAAAAATAAAA [CACACA_site2562],10.1 ± 0.33
13,GTTAGCATATTAAGTTGTACACAATTATTCTTCAAT [XGTACX_site8324],11.6 ± 0.93
14,TGGTATTTTGATGATAAAAGGAAATTTTTTTTATAC [XGTACX_negctrl_site111],10.1 ± 0.27
15,AATATAATATAATGCACACATAAACAAAAAAAAAAA [CACACA_site783],10.2 ± 0.38
16,GTAATTAAAATATATACACACAAAGGCTATTAAATA [CACACA_site1011],9.96 ± 0.057
17,TATATAAAATATTAATGTACATATAAATATATATAT [XGTACX_site6656],11.3 ± 0.7
18,ATTTATGAAAGAAATAGTACACACATAAACATTTGT [XGTACX_site5862],11.4 ± 0.87
19,TTTAATTTTTTTAAAACACACAAATATATATATATA [CACACA_site3898],10.1 ± 0.67
20,CAAAATAATATATATACACACACACCGATATATATA [CACACA_site8082],9.915 ± 0.021
21,TTTAATACGAATGAGGCACACACCTAGTATACATGC [CACACA_site621],10.2 ± 0.11
22,GATACATAGAAACACACACACATACATATATACATA [CACACA_site3438],10 ± 0.16
23,TCACAAAAAGAACATTGATATTATTATAAAATCGTC [GTGCAC_negctrl_site177],9.73 ± 0.11
24,TTTATGTACAGACATATACACACCTCTATAATATAT [CACACA_site730],11.1 ± 0.73
